Test results taken from ChEMBL document CHEMBL4888484, “Replenishing the malaria drug discovery pipeline: Screening and hit evaluation of the MMV Hit Generation Library 1 (HGL1) against asexual blood stage Plasmodium falciparum ,using a nano luciferase reporter read-out” (2022).
The campaign covered roughly 150,000 compounds. About 540 (0.36%) showed an effect of 50% or more. Some of the results follow.

These compounds were tested on Plasmodium falciparum (assay: Primary screen in NF54 nanoGlo assay, in single point, at 2uM, 72h; a lower Z score goes with more inhibition). Details: timepoint 72 hour.
Type: functional, Erythrocyte

Row | SMILES | % Inhibition | Z score
1 | Cn1nc(-c2cnccn2)cc1CNC(=O)c1ccc(Cl)s1 | 13% | -1.67
2 | O=S(=O)(N[C@H]1[C@@H]2COC[C@@H]21)[C@H]1C[C@@H]1c1ccccc1 | -5% | 0.89
3 | CC1CN(C(=O)c2cn(C)nc2-c2ccc(F)cc2F)CC(C)N1 (stereo not drawn) | 3% | -0.33
4 | O=C(NC1CCS(=O)(=O)C1)C1C2CCCC21 (stereo not drawn) | 2% | -0.3
5 | Cc1cccc(-c2nc(C)c(Cc3ccccc3)c(N3CCN(C(=O)c4cccs4)CC3)n2)c1 | -8% | 1.18
6 | Cc1cc(C)n(-c2ccc(C(=O)N3CCCC[C@@H]3C(=O)O)cc2)n1 | -8% | 1.21
7 | O=C(NCCN1CCC(CO)CC1)c1cn[nH]c1 | 2% | -0.34
8 | CC(=O)c1ccc(N2CCOCC2)c(-c2cnn(Cc3ccccc3)c2)c1 | -5% | 0.98
9 | N#Cc1cccc(S(=O)(=O)Nc2ccnn2C2CCCC2)c1 | 7% | -1.23
10 | CNC(=O)Cc1c(Cl)cccc1Cl | 33% | -0.34
11 | CC(C)(C)[C@@H]1CN(C(=O)c2ncncc2Cl)CCO1 | 3% | -0.54
12 | CC(C)CC(=O)N(Cc1ccc(OS(=O)(=O)C(C)C)cc1)C(C)C | -22% | 1.9
13 | CCO[C@@H](C)c1ncc(C(=O)NCC2CC(F)(F)C2)s1 | -9% | 1.8
14 | CN1CCCC(CNC(=O)c2cnns2)C1c1cccs1 (stereo not drawn) | 2% | -0.33
15 | C[C@@H]1CN(Cc2csc(-c3ccoc3)n2)CC(C(N)=O)O1 (stereo partly drawn) | 4% | -0.51
16 | Nc1nc2c(s1)CN(Cc1cc(O)c3cccc(F)c3n1)CC2 | -7% | 1.32
17 | Cc1cc(Br)cc2c1NC(=O)C2(O)N1CCCC(C)C1 (stereo not drawn) | -5% | 0.84
18 | CC(C)OCCCC(=O)N1CC[C@H](CO)C1 | 1% | -0.11
19 | COc1ccc(-c2nn3c(NCCN4CCOCC4)cc(C)nc3c2C)cc1 | 0% | 0.06
20 | CCc1cc(C(=O)NCc2ccc(N3CCC[C@H](C)C3)cc2)cc(=O)[nH]1 | 5% | -0.73
21 | COC(=O)c1cc(Cl)cc(NC(=O)N2CC[C@]3(CCOC3)C2)c1 | -43% | 5.06
22 | O=C(C1CC12CCOc1ccccc12)N1CCC(c2nnc[nH]2)C1 (stereo not drawn) | 2% | -0.16
23 | Cc1n[nH]c(CN2CCC3(CCN(C4CCCC4)CC3)[C@@H](CO)C2)c1Cl | -4% | 0.72
24 | O=C(c1ccc2nsnc2c1)N1CCC(c2ccsc2)CC1 | -9% | 1.89
